The full ranking holds about 81,000 sequences; the median of “one-hybrid fitness for binding parS DNA” is about -0.17, and the highest 2% start at about 0.51. The list shows a part of the results.
B1: Caulobacter ParB omega fusion; a variant is named by its letters at X, in order, B8GW30 (parent)
chain: MESVVVGEPGMSEGRRGLGRGLSALLGEVDAAPAQAPGEQLGGSREAPIEILQRNPDQPRRTFREEDLEDLSNSIREKGVLQPILVRPSPDTAGEYQIVAGERAWRAAQRAGLKTVPIMVRELDDLAVLEIGIIENVQRADLNVLEEALSYKVLMEKFERTQENIAQTIGKSXSHVANXMRLLXLPDEVQSYLVSGELTAXHARAIAAAADPVALAKQIIEGGLSVRETEALARKAPNLSAGKSKGGRPPRVKDTDTQALESDLSSVLGLDVSIDHRGSTGTLTITYATLEQLDDLCNRLTRGI

Variants of: B1
Assay: one-hybrid fitness for binding parS DNA (scaled: cognate 1, non-cognate 0); higher = stronger binding
Conditions: with parS DNA site
How it was run: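 Caulobacter ParB libraries with four specificity codons randomised were screened by bacterial one-hybrid selection in the E. coli USO strain, using a HIS3 reporter whose site lies 19 bp from the promoter. Selection ran for 48 hours at 37°C on M9 lacking histidine, with 0.1 mM IPTG and 5 mM 3-AT. Plasmids were Illumina-sequenced before and after selection, three replicate libraries were pooled, and variants with under 10 reads were dropped. Fitness is the log change in each variant's read ratio to wild type, rescaled against the cognate and non-cognate sites.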

Variant | one-hybrid fitness for binding parS DNA
GSRR | ≤ 0.2
YNTY | ≤ 0.2
MFGA | ≤ 0.2
RHFL | ≤ 0.2
SQRN | ≤ 0.2
RDKD | ≤ 0.2
GFER | ≤ 0.2
HHPS | ≤ 0.2
MPAV | ≤ 0.2
DRHC | ≤ 0.2
MCTC | ≤ 0.2
GPEG | ≤ 0.2
ADGG | ≤ 0.2
MVTH | ≤ 0.2
SSRH | ≤ 0.2
KLHS | ≤ 0.2
SGHV | ≤ 0.2
TPEK | ≤ 0.2
VVPL | ≤ 0.2
LYIG | ≤ 0.2
PYMR | ≤ 0.2
RRHH | ≤ 0.2
RMIP | ≤ 0.2
RTED | ≤ 0.2

Variant | one-hybrid fitness for binding parS DNA
PAAR | ≤ 0.2
RKDC | 0.923
QIDR | ≤ 0.2
QDML | ≤ 0.2
KWPG | ≤ 0.2
SYVA | ≤ 0.2
DPKF | ≤ 0.2
NLET | ≤ 0.2
YAVR | ≤ 0.2
FVSL | ≤ 0.2
RQAD | ≤ 0.2
RQQR | ≤ 0.2
SHQN | ≤ 0.2
FSAA | ≤ 0.2
EHQT | ≤ 0.2
KAKM | ≤ 0.2
FSNP | ≤ 0.2
PYEM | ≤ 0.2
SLQM | ≤ 0.2
WLFR | ≤ 0.2
AFLS | ≤ 0.2
MCII | ≤ 0.2
CNNG | ≤ 0.2
PMYL | ≤ 0.2

Variant | one-hybrid fitness for binding parS DNA
DYLN | ≤ 0.2
RLDR | ≤ 0.2
CCLN | ≤ 0.2
PMQH | 0.267
GNQT | ≤ 0.2
VWIG | ≤ 0.2
QHVN | ≤ 0.2
YNDM | ≤ 0.2
PMDV | ≤ 0.2
IDNP | ≤ 0.2
TLKH | ≤ 0.2
LFIS | ≤ 0.2
ALIL | ≤ 0.2
EFEC | ≤ 0.2
HFMS | ≤ 0.2
CLSV | ≤ 0.2
INPF | ≤ 0.2
VMVP | ≤ 0.2
KCDC | ≤ 0.2
YMVD | ≤ 0.2
RIFR | ≤ 0.2
TITQ | ≤ 0.2
QGHN | ≤ 0.2
SYEL | ≤ 0.2

Variant | one-hybrid fitness for binding parS DNA
LPKS | ≤ 0.2
AYSV | ≤ 0.2
YMLT | ≤ 0.2
TLRY | ≤ 0.2
RRFM | ≤ 0.2
STCA | ≤ 0.2
ESFS | ≤ 0.2
HRLF | ≤ 0.2
AKHH | ≤ 0.2
ANEE | ≤ 0.2
RHQM | 0.276
GNGK | ≤ 0.2
HNRK | ≤ 0.2
LVES | ≤ 0.2
IDIR | ≤ 0.2
WRNP | ≤ 0.2
PGYS | ≤ 0.2
YQDF | 0.303
CASD | ≤ 0.2
SKPW | ≤ 0.2
DVHG | ≤ 0.2
KQKT | ≤ 0.2
PLYK | ≤ 0.2
KGDV | ≤ 0.2

Variant | one-hybrid fitness for binding parS DNA
GRCG | ≤ 0.2
HFDY | ≤ 0.2
NYIV | ≤ 0.2
LLPD | ≤ 0.2
QMTQ | ≤ 0.2
TTES | ≤ 0.2
VRGC | ≤ 0.2
MNGS | ≤ 0.2
EPLG | ≤ 0.2
RCIV | ≤ 0.2
EPSN | ≤ 0.2
WPTC | ≤ 0.2
TIRL | ≤ 0.2
LYHN | ≤ 0.2
LARL | ≤ 0.2
TWPC | ≤ 0.2
HPRE | ≤ 0.2
EKRF | 0.226
SSFM | ≤ 0.2
EASI | ≤ 0.2
PMNK | ≤ 0.2
LQIK | ≤ 0.2
PHPE | ≤ 0.2
VTDD | ≤ 0.2

Variant | one-hybrid fitness for binding parS DNA
PSDQ | ≤ 0.2
HLKL | ≤ 0.2
SNWS | ≤ 0.2
YHHH | ≤ 0.2
MWAT | ≤ 0.2
HDDC | ≤ 0.2
DCES | ≤ 0.2
ALVA | ≤ 0.2
SKYV | ≤ 0.2
QRHH | ≤ 0.2
MPAT | ≤ 0.2
EAWG | ≤ 0.2
PDDG | ≤ 0.2
LYCG | ≤ 0.2
GFDR | ≤ 0.2
HHHG | ≤ 0.2
MTSQ | ≤ 0.2
WKIT | 0.213
PGRL | ≤ 0.2
QGVW | ≤ 0.2
CCRF | ≤ 0.2
VKWC | ≤ 0.2
IKIA | ≤ 0.2
GLCA | ≤ 0.2

Variant | one-hybrid fitness for binding parS DNA
LEGA | ≤ 0.2
IWLG | ≤ 0.2
INDV | ≤ 0.2
RFIS | 0.777
ETNP | ≤ 0.2
MRHH | ≤ 0.2
CVFS | ≤ 0.2
NFPV | ≤ 0.2
MSSY | ≤ 0.2
TSAR | ≤ 0.2
KQRD | ≤ 0.2
NRRS | ≤ 0.2
MFAC | ≤ 0.2
KKWG | ≤ 0.2
ERLH | ≤ 0.2
RCMQ | ≤ 0.2
LPKW | ≤ 0.2
MYAF | ≤ 0.2
CTAR | ≤ 0.2
HFSN | ≤ 0.2
ALWW | ≤ 0.2
QPVL | ≤ 0.2
VRPR | ≤ 0.2
TPVW | ≤ 0.2

Variant | one-hybrid fitness for binding parS DNA
SLLR | ≤ 0.2
AGIT | ≤ 0.2
CTHQ | ≤ 0.2
KFTV | ≤ 0.2
CAIY | ≤ 0.2
PRNE | ≤ 0.2
ETHS | ≤ 0.2
HLLV | ≤ 0.2
AQDR | ≤ 0.2
QYLV | ≤ 0.2
AVHD | ≤ 0.2
FSNL | ≤ 0.2
GHCR | ≤ 0.2
PGKY | ≤ 0.2
ALYG | ≤ 0.2
TVKQ | ≤ 0.2
CPCW | ≤ 0.2
WMNY | ≤ 0.2
LEQM | ≤ 0.2
LHFS | ≤ 0.2
LAQN | ≤ 0.2
HPPW | ≤ 0.2
GRLS | ≤ 0.2
HPRR | ≤ 0.2

Variant | one-hybrid fitness for binding parS DNA
KRTG | ≤ 0.2
FAVS | ≤ 0.2
EMNL | ≤ 0.2
KRGH | ≤ 0.2
RHLP | ≤ 0.2
IDGW | ≤ 0.2
DMFR | ≤ 0.2
VGLR | ≤ 0.2
RYLI | ≤ 0.2
GMCG | ≤ 0.2
NFYV | ≤ 0.2
RDKH | ≤ 0.2
FSSR | ≤ 0.2
VSMW | ≤ 0.2
ASLD | ≤ 0.2
HHSF | ≤ 0.2
IFER | ≤ 0.2
RIRV | ≤ 0.2
YRGY | ≤ 0.2
TDDG | ≤ 0.2
HHKW | ≤ 0.2
CASY | ≤ 0.2
QSHQ | ≤ 0.2
TTKT | ≤ 0.2

Variant | one-hybrid fitness for binding parS DNA
HTNF | ≤ 0.2
HTQN | ≤ 0.2
QNKM | ≤ 0.2
SELD | ≤ 0.2
PDFR | ≤ 0.2
CSLF | ≤ 0.2
TTNC | ≤ 0.2
DMCG | ≤ 0.2
YLVH | ≤ 0.2
KDKC | ≤ 0.2
TMLE | ≤ 0.2
AQES | ≤ 0.2
TKLG | ≤ 0.2
PKSI | ≤ 0.2
RMPF | ≤ 0.2
SSPK | ≤ 0.2
AAAR | ≤ 0.2
NTKS | ≤ 0.2
QVCN | ≤ 0.2
DLNR | ≤ 0.2
HINP | ≤ 0.2
TTAL | ≤ 0.2
GAPF | ≤ 0.2
MHRM | ≤ 0.2

Variant | one-hybrid fitness for binding parS DNA
RYHN | 0.421
QRVI | ≤ 0.2
QDCT | ≤ 0.2
IMWC | ≤ 0.2
RDGM | ≤ 0.2
GPML | ≤ 0.2
ANQG | ≤ 0.2
CNTT | ≤ 0.2
IVVM | ≤ 0.2
AANF | ≤ 0.2
ALFG | ≤ 0.2
AEGL | ≤ 0.2
YDLV | ≤ 0.2
RAQA | 0.548
WDKT | ≤ 0.2
NFVE | ≤ 0.2
QCTN | ≤ 0.2
DPFG | ≤ 0.2
TEGV | ≤ 0.2
SNLS | ≤ 0.2
IFSW | ≤ 0.2
HFSK | ≤ 0.2
CWNR | ≤ 0.2
GVPR | ≤ 0.2

Variant | one-hybrid fitness for binding parS DNA
ERAT | ≤ 0.2
YRNT | ≤ 0.2
QLSL | ≤ 0.2
HLVL | ≤ 0.2
ANLG | ≤ 0.2
SIYI | ≤ 0.2
PKYR | ≤ 0.2
ANTL | ≤ 0.2
CSHS | ≤ 0.2
QSML | ≤ 0.2
RWEN | ≤ 0.2
EWAS | ≤ 0.2
TLQR | ≤ 0.2
WYAT | ≤ 0.2
RSEM | 0.246
KMYC | ≤ 0.2
AKVY | ≤ 0.2
LSKE | ≤ 0.2
LTWE | ≤ 0.2
EIYC | ≤ 0.2
EGTV | ≤ 0.2
QIYN | ≤ 0.2
QGKA | ≤ 0.2
EYTP | ≤ 0.2

Variant | one-hybrid fitness for binding parS DNA
LIHI | 0.217
IQVG | ≤ 0.2
TLMF | ≤ 0.2
KRHM | ≤ 0.2
AFTR | ≤ 0.2
WAMS | ≤ 0.2
HCPW | ≤ 0.2
LRKH | ≤ 0.2
RELI | ≤ 0.2
DYHN | ≤ 0.2
GIAG | ≤ 0.2
WVKS | ≤ 0.2
DSTK | ≤ 0.2
RNTV | ≤ 0.2
KPQC | ≤ 0.2
VSPC | ≤ 0.2
FEVT | ≤ 0.2
CTLT | ≤ 0.2

Reference: a collection of fitness landscapes (doi:10.1016/j.celrep.2020.107928)
